Results taken from publication PMC6459857 (Nature Communications, 2019).
Blank lines part the entries; values can stand above or below the binder they belong to.

Legend:
[1] = target: T1, truncated human cyclin A (residues 173–432) (human, UniProt P20248 fragment); assay: SPR; BIACORE 3000, 25 °C; p27-KID constructs covalently attached (EDC/NHS) to a CM-4 chip; Cdk2/cyclin A, cyclin A or Cdk2 flowed over at 50 µl/min in 10 mM Tris pH 8.0, 300 mM NaCl, 1 mM EGTA, 5 mM DTT, 0.1 mg/mL BSA, 0.005% Tween20; 1:1 (Langmuir) model, KD = kd/ka; apparent KD; conditions: both partners purified
T1 construct: truncated human cyclin A, residues 173–432; source: E. coli, purified (Ni2+-NTA, His-tag removed with thrombin, gel filtration)

[2] = target: T2, Cdk2/cyclin A binary complex (human, UniProt P24941; P20248 fragment); assay: as above; conditions: both partners purified
[3] = target: T2, Cdk2/cyclin A binary complex; assay: cell-based or functional assay
[4] = target: T2, Cdk2/cyclin A binary complex; assay: ITC; 10 µM p27 or p27 Y to E variants injected into 1 µM Cdk2/cyclin A binary complex; 20 mM HEPES pH 7.5, 300 mM NaCl, 2 mM TCEP; experiments from 5 to 25 °C in intervals of 5 °C (temperature of the tabulated values not stated); single-site binding model; conditions: both partners purified

B3: p27-KID (p27-KID-Y89F) (domain or fragment)
chain: not shown
- IC50 of inhibition of the kinase activity of Cdk2/cyclin A toward histone H1 [3]: 2.8 nM

B4: p27 (full length, Y89F) (natural protein)
chain: not shown
notes: p27Kip1 (p27), human, […] (full length); also called p27^Kip1; p[…]F; source: E. coli, purified (Ni2+-NTA, His-tag removed with thrombin, reverse-phase HPLC over C4 resin)
- Kd [4]: 4.9 nM
- dH [4]: -50.6 kcal/mol

More lines, now with the values ahead:

- Kd [1]: < 52 nM
- Kd [2]: < 2.9 nM
- IC50 of inhibition of the kinase activity of Cdk2/cyclin A toward histone H1 [3]: 12 nM
B1: pY88-p27-KID (domain or fragment)
chain: not shown
modifications: phosphotyrosine at 88
notes: also called Y88-phosphorylated p27-KID; source: E. coli, purified

- Kd [1]: < 52 nM
- Kd [2]: < 2.9 nM
- IC50 of inhibition of the kinase activity of Cdk2/cyclin A toward histone H1 [3]: 29 nM
B2: pY74/pY88-p27-KID (domain or fragment)
chain: not shown
modifications: phosphotyrosine at 74 and 88
notes: The NMR methods call this sample 'pY74/pY88-p27' among the p27-KID constructs; also called dual Y-phosphorylated p27-KID; source: E. coli, purified; phosphorylated with Src-KD, ATP and Mg2+ (told for pY74/pY88-p27)
